Measurements published in PubChem BioAssay AID1030 (National Center for Advancing Translational Sciences (NCATS), 2008).
Out of some 220,000 compounds screened, about 16,000 (7.3%) were called active. Inconclusive results, whose numbers are uncertain, are shown with a selection of clear calls. The call rests on the fitted dose curve; in most records, active means well fitted inhibition curve with a large enough effect (not every such curve was filed as active); inconclusive means small, poorly fitted or top-dose-only effect, or another doubt; inactive means no such curve, though single readings can be large or run the other way. Potencies of inconclusive entries are left out as doubtful fits.

target: Aldehyde dehydrogenase 1A1 (Homo sapiens) (UniProt P00352); assay: qHTS Assay for Inhibitors of Aldehyde Dehydrogenase 1 (ALDH1A1); conditions: Purified ALDH1A1, NADH fluorescence, propionaldehyde substrate; series mostly up to 75.3 µM;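 on activity, negative = inhibition: plate controls were no enzyme wells and a reference inhibitor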
Potency means the concentration at half of the fitted maximal effect; tags describe the fitted curve by direction and shape.

Chain of UniProt P00352 (P00352 whole entry, looked up): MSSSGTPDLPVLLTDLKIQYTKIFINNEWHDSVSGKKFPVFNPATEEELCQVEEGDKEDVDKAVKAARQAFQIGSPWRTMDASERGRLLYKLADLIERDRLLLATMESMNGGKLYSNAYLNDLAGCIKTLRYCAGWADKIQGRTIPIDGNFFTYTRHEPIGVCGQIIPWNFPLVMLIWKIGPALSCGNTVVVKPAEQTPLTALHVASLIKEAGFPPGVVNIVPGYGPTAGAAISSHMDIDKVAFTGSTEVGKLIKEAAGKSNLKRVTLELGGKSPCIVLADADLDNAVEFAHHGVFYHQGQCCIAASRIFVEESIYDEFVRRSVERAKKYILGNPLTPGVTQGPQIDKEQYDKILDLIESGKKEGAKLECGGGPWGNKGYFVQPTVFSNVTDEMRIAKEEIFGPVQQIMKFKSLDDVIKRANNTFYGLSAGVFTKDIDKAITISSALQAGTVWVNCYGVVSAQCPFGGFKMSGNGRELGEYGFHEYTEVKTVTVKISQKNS

SMILES | Potency | activity, negative = inhibition
Cc1cccc(CNc2ncnc3ccc(-c4ccccc4C#N)cc23)c1 | inconclusive [inhibitor, partial curve] | 
O=C(Nc1ccc2cn[nH]c2c1)c1ccc(S(=O)(=O)N2CCOCC2)cc1 | inactive | 
NC(=O)C1(N2CCCCC2)CCN(C(=O)CSc2nc3ccccc3s2)CC1 | active: 25.1 µM | 
COCCn1c(SCC(=O)Nc2ccccc2OC)nc2c(oc3ccccc32)c1=O | inconclusive [inhibitor, partial curve] | 
COc1ccc(NC(C)=O)c2nc(C)c(C)nc12 | inconclusive [inhibitor, single point] | 
CCOc1ccc(-c2cc(CCCC(=O)NCCCOC)no2)cc1 | inactive | 
CCOC(=O)N/N=C1/C[C@@H](O)[C@@H](O)[C@@H]2[C@@H]3C(=O)N(C(C)(C)C)C(=O)[C@H]3CC[C@@H]12 |  | inactive: 9.9% [at 13.5 µM]
COc1cccc(-c2ccc(SCC(=O)NCCc3ccccc3)nn2)c1 | inconclusive [inhibitor, single point] | 
COc1cccc(C(=O)CSc2nc3ccccc3n2CC(=O)N2CCOCC2)c1 | inconclusive [inhibitor, single point] | 
COc1cccc(Cn2c(=O)c(C)nc3cnc(N4CCOCC4)nc32)c1 | inconclusive [inhibitor, partial curve] | 
Cc1ccc(NC(=O)c2cc(S(=O)(=O)N3CCC4(CC3)OCCO4)ccc2F)cc1 | inconclusive [inhibitor, single point] | 
CCOC(=O)Cc1csc(NC(=S)NC(=O)c2cccc([N+](=O)[O-])c2)n1 | inconclusive [inhibitor, single point] | 
Cc1c(C)n(CC(O)CN2CCOCC2)c2ccccc12 (centres undefined) | inconclusive [inhibitor, partial curve] | 
Cc1cccc(CN2CCN([C@@H](c3ccccc3)c3ccc(Cl)cc3)CC2)c1 | inactive | 
O=C(CN1CCN(c2ccccn2)CC1)Nc1ccc(Cl)c(C(F)(F)F)c1 | inconclusive [inhibitor, single point] | 
Cc1cc(C)n(-c2ccc(N3CCOCC3)nn2)n1 | inconclusive [inhibitor, single point] | 
Fc1ccccc1COc1ccc(Br)cc1CNCc1ccncc1 | inconclusive [inhibitor, single point] | 
CN(C)S(=O)(=O)c1cccc(C(=O)N2CCc3ccccc32)c1 | inactive | 
O=C(O)c1cccc(-c2nc3ccccc3[nH]2)c1 | inconclusive [inhibitor, single point] | 
O=C(Cn1c(-c2cncs2)nc2ccccc21)NCCc1ccccc1 | inconclusive [inhibitor, single point] | 
CCOC(=O)c1c(NC(=O)CN2CCCCC2)sc2c1CCCC2O (centres undefined) | inconclusive [inhibitor, partial curve] | 
CC(C)(C)c1ccc(OCC(=O)NN2Cc3ccccc3C2=N)cc1 | inconclusive [inhibitor, single point] | 
CC(C)NC(=O)Cn1cc(C#N)c2cc(Br)ccc21 | inactive | 
CCOC(=O)c1c(-c2cccc(C)c2)csc1NC(=O)c1c(-c2ccccc2)noc1C | inconclusive [inhibitor, partial curve] | 
CCc1ccc(/C=C2/SC(=S)N(CC(=O)Nc3nc4ccccc4s3)C2=O)cc1 | inconclusive [inhibitor, single point] | 

SMILES | Potency | activity, negative = inhibition
CCOc1ccc(OCC)c(NC(=O)C2CCCN(S(=O)(=O)c3cccs3)C2)c1 (centres undefined) | inconclusive [inhibitor, single point] | 
CCOC(=O)c1ccc(S(=O)(=O)NNC(=O)c2cccc(N(C)C)c2)cc1 | inconclusive [inhibitor, single point] | 
N=C(N)SCCc1ccncc1 |  | inactive: 17.5% [at 13.5 µM]
CC(=O)/C(=N/Nc1cccc(C)c1)N1CCOCC1 | inconclusive [inhibitor, single point] | 
CCOC(=O)N1CCN(C(=O)CSc2ccc3nnc(-c4cccnc4)n3n2)CC1 | inconclusive [inhibitor, partial curve] | 
O=C(c1ccc2c(c1)OCO2)C1CCCN(Cc2cc(F)ccc2-n2cccn2)C1 (centres undefined) | inconclusive [inhibitor, partial curve] | 
O=Nc1c(O)n(Cc2c(Cl)cccc2Cl)c2ccccc12 | inconclusive [inhibitor, full curve, poor fit] | 
O=C(CCCCl)Oc1ccc2cc(-c3ccc4ccccc4n3)c(=O)oc2c1 | inconclusive [inhibitor, partial curve] | 
CCCSC1=N/C(=C\C=C\c2ccco2)C(=O)S1 | active: 28.2 µM | 
Oc1ccccc1-c1cc(-c2ccccc2)no1 | inactive | 
Fc1ccc(NC(=S)N2CCc3ccccc3C2)c(F)c1 | inconclusive [inhibitor, partial curve] | 
CCOC(=O)c1c(C)c(-c2ccccc2)n(CC(=O)NCCCN(CC)CC)c1C | inactive | 
Brc1cc2c(cc1/C=N/Nc1nc(N3CCCCC3)nc(N3CCCCC3)n1)OCO2 | inactive | 
N#CCCN(CC#Cc1ccccc1)OCc1ccccc1 |  | inactive: -15.4% [at 13.5 µM]
O=c1cc(-c2ccco2)oc2ccc(Cl)cc12 | inconclusive [inhibitor, full curve, poor fit] | 
COc1cccc(-n2c(SCc3ccccn3)nc3c(c2=O)SCC3)c1 | inactive | 
O=C(CN1C(=O)COc2ccc(S(=O)(=O)N3CCCC3)cc21)NC1CCCCCCC1 | inactive | 
CC1(C)CC2CC(C)(CN2S(=O)(=O)c2cccc(N)c2)C1 (centres undefined) | inconclusive [inhibitor, partial curve] | 
C/C(Cn1cnc([N+](=O)[O-])n1)=N\NC(=O)c1ccc(F)cc1 | inconclusive [inhibitor, single point] | 
Cc1ccc(NS(=O)(=O)c2ccc(Cl)s2)cc1S(=O)(=O)N(C)C | active: 3.16 µM | 
CC(C)Oc1cccc(C(=O)N2CCCC2)c1 | inactive | 
CC(=O)Nc1ccc(Oc2ccccc2)cc1 | inactive | 
O=C(CCN1CCOCC1)Nc1c(-c2ccccc2)c2cc(Br)ccc2[nH]c1=O | inconclusive [inhibitor, partial curve] | 
COc1cc(OC)cc(-c2nc3ccccc3c(=O)n2OC(=O)c2ccc(Br)cc2)c1 | inactive | 
COc1ccc(OCC(=O)N2CCN(c3cccc(Cl)c3)CC2)cc1 | inactive | 

SMILES | Potency | activity, negative = inhibition
COc1ccc(N2CC(C)Cn3c2nc2c3c(=O)n(Cc3ccccc3F)c(=O)n2C)c(OC)c1 (centres undefined) | active: 17.8 µM | 
COC(=O)CCCC1=CC2=C(c3ccccc3)C(=O)C(C)(OC(=O)C3CCCC3)C(=O)C2=CN1CCc1ccccn1 (centres undefined) | inconclusive [inhibitor, single point] | 
O=C(c1ccccc1)N1CCN(Cc2c[nH]c3ccccc23)CC1 | inactive | 
O=C(O)CC/C(=N\NC(=O)c1ccccc1Br)c1ccccc1 | inactive | 
Cc1ccc(Oc2ncccc2C(=O)NCC(=O)O)cc1 | inactive | 
NC(=O)c1cc(N2C(=O)C3CC=CCC3C2=O)ccc1N1CCCCC1 (centres undefined) | inconclusive [inhibitor, single point] | 
Cc1ccccc1NS(=O)(=O)c1cc(S(C)(=O)=O)ccc1Cl | active: 20 µM | 
O=C(NCc1ccc(C(F)(F)F)cc1)C12CN(Cc3ccccc3)CC1C(c1cccc([N+](=O)[O-])c1)=NO2 (centres undefined) | inconclusive [inhibitor, partial curve] | 
CCn1c(=O)cc(OCC(=O)Nc2ccccc2C#N)c2ccccc21 | inconclusive [inhibitor, partial curve] | 
CCN1CCN(c2nc3sc4c(c3c(=O)n2-c2ccc(OC)cc2)CCCCC4)CC1 | active: 10 µM | 
COc1ccc(N=C2S/C(=C\c3cc(C)n(C)c3C)C(=O)N2CC(C)C)cc1 | active: 2.51 µM | 
CC1=NN(c2ccccc2)C(=O)/C1=C/c1cccs1 | active: 14.1 µM | 
CCOC(=O)N1CCN(C(=O)/C(=C/c2ccc(Cl)cc2)NC(=O)c2ccccc2)CC1 | inconclusive [inhibitor, partial curve] | 
Cc1occc1-c1n[nH]c(=S)n1C | inactive | 
CCS(=O)(=O)N1CCCC(C(=O)NCc2ccc3c(c2)OCO3)C1 (centres undefined) | inactive | 
O=C(Nc1nccs1)c1ccc(Cl)c(S(=O)(=O)N2CCOCC2)c1 | inactive | 
CC(=O)c1c(C)nc(-c2ccc(Cl)cc2)nc1NC(=O)C(C)C | inactive | 
CCOc1ccc(C2C(C#N)=C(N)SC(N)=C2C#N)cc1OC | inconclusive [inhibitor, single point] | 
O=C(Cn1nnc(-c2ccccc2NC(=O)c2cccs2)n1)Nc1ccccc1 | inconclusive [inhibitor, single point] | 
Cc1nc(C)c(/C(O)=C/c2nc3ccc([N+](=O)[O-])cc3oc2=O)o1 | active: 0.398 µM | 
CCCN1CCOC(CC(=O)Nc2ccc([N+](=O)[O-])cc2)C1=O (centres undefined) | active: 8.91 µM | 
COc1cccc(NC2CC(=O)N(CCc3ccccc3)C2=O)c1 (centres undefined) | inconclusive [inhibitor, single point] | 
CCOC(=O)Cn1c(-c2ccccn2)nc2ccccc21 | inconclusive [inhibitor, single point] | 
CN1CCN(c2nc3c(c(=O)[nH]c(=O)n3C)n2CCCSc2nnnn2-c2ccccc2)CC1 | active: 22.4 µM | 
